According to patent US20210284734A1 (SYMPHOGEN A S, published 2021):

Assays:
[1] = molecular target: T1, human PD-1 Fc fusion protein (Sino Biological) (human, UniProt Q15116 in part, limits assumed); experiment: BLI, PD-1-Fc saturated with 10 ug/ml antibody, then PD-L1-Fc
T1 construct: bought; not shown: Fc of the commercial fusion protein

[2] = molecular target: T1, human PD-1 Fc fusion protein (Sino …); experiment: BLI, PD-1-Fc saturated with 10 ug/ml antibody, then PD-L2-Fc
[3] = molecular target: T2, human PD-1 expressed on CHO-S cells (human, UniProt Q15116 25-288); experiment: flow cytometry competition, 10 ug/ml antibody vs R-PE PD-L1-Fc on PD-1 CHO-S cells
T2 construct: also called PD-1-expressing cells

B1: 12748.13354 (antibody)
chain 1: EVQLLESGGGLVQPGGSLRLSCAASGFTFSDYAMNWVRQAPGKGLEWVAGIGNDGSYTNYGAAVKGRATISRDNSKNTLYLQMNSLRAEDTAVYYCASDIRSRNDCSYFLGGCSSGFIDVWGQGTLVTVSSASTKGPSVFPLAPSSKSTSGGTAALGCLVKDYFPEPVTVSWNSGALTSGVHTFPAVLQSSGLYSLSSVVTVPSSSLGTQTYICNVNHKPSNTKVDKRV[human IgG1 Fc with changes omitted]
chain 2: not shown
% Blocking [1]: 97%
% Blocking [2]: 96%
% PD-L1 binding inhibition [3]: 86%
